In all, about 33,000 sequences were measured (“E-score (-0.5 to 0.5)”: median about -0.035, highest 2% from about 0.35 on). Some of the results follow.
molecular target: T1, Pdr3 (UniProt P33200); assay: PBM E-score (8-mer binding enrichment) (E-score (-0.5 to 0.5)); higher = stronger / more preferred TF binding; most listed sequences are background and not binding sites; settings: protein concentration: 200 nM; construct: GST-full length
T1 sequence: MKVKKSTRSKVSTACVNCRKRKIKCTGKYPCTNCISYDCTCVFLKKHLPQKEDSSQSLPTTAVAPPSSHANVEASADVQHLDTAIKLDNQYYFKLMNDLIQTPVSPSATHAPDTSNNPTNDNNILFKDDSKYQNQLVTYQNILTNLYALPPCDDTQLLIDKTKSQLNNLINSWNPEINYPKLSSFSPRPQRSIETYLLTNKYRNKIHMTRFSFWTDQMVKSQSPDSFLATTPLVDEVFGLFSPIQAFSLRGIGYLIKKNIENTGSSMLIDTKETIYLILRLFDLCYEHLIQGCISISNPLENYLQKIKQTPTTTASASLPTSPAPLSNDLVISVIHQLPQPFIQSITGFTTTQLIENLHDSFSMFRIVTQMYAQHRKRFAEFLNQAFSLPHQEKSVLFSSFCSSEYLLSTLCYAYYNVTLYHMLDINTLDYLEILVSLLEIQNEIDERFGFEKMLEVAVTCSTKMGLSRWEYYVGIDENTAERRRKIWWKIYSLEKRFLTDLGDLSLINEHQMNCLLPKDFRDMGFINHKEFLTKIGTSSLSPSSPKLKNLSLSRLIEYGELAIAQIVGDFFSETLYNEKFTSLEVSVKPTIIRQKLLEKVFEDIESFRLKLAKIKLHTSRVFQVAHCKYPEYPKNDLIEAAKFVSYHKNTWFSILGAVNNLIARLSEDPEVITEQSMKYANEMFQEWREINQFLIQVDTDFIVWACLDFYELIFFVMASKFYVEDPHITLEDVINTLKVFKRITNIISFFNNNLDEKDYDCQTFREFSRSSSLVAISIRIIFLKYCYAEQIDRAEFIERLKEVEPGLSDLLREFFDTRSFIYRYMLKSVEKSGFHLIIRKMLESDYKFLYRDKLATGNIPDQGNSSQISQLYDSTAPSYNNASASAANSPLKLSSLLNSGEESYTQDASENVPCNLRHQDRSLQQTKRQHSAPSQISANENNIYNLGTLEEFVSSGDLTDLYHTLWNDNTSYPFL
Method: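 Universal 'all 10-mer' protein binding microarrays (Agilent AMADID 015681) probed with GST-tagged S. cerevisiae TFs (full-length or DBD) made by in vitro transcription/translation (PURExpress), about 100-200 nM. Bound TF was detected with fluorescent anti-GST. Each ungapped 8-mer (which stands for itself and its reverse complement) is scored by the PBM enrichment score (E-score), a modified Wilcoxon-Mann-Whitney statistic from -0.5 to +0.5, computed with the Universal PBM Analysis Suite. Scale: above 0.35 generally sequence-specific binding.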

| Sequence | PBM E-score |
| --- | --- |
| GGCACGAA | -0.0672 |
| CAGATCTG | -0.0317 |
| AATTAAGT | 0.0515 |
| CGACAAAC | -0.0374 |
| AATTCAGA | -0.111 |
| CTGCAAGC | -0.206 |
| CCAGCAGA | -0.0116 |
| CATCGGAG | 0.0478 |
| CTGATCAA | -0.0352 |
| AATCTAGG | -0.0668 |
| ACAGTGTG | -0.189 |
| AGCGTGTA | -0.101 |
| CCAAAAGG | -0.243 |
| GTTGATCA | 0.0338 |
| GAATAGAC | -0.218 |
| GTGGGTGA | 0.179 |
| ACTGATGA | -0.185 |
| GAAACCGA | 0.11 |
| CCTCAATC | 0.0825 |
| ACATAATA | 0.0902 |
| AACGGAGA | 0.243 |
| ATATCGCG | 0.257 |
| CCTAGCCC | -0.0864 |
| AAAGATGT | -0.0757 |
| GAGGAGCC | -0.0654 |

| Sequence | PBM E-score |
| --- | --- |
| CGTTGATC | -0.0265 |
| CACAGGCA | -0.115 |
| CGCGTGAG | 0.0757 |
| AGCGAGCT | 0.126 |
| AGGTTCAC | 0.0101 |
| AAACTACT | 0.0125 |
| GACCGGTA | -0.0279 |
| CAATCTAA | -0.0346 |
| AGTGTATA | -0.26 |
| GAGTTCGC | 0.103 |
| ACTCCAGG | -0.113 |
| GCTAGTAA | 0.0102 |
| CGCCTTAG | -0.0386 |
| CTCCACTC | -0.226 |
| AACGCCCA | -0.107 |
| CAGAAACC | 0.0609 |
| CGTTCGGA | 0.414 |
| CACAGGGA | -0.0576 |
| AGCTGTCA | -0.105 |
| AACGGCTC | 0.0795 |
| ACGCGTGA | 0.154 |
| ACTGTGGC | -0.16 |
| CGTGCGTC | 0.126 |
| CATTCACC | 0.195 |
| CAAGGCTG | -0.364 |

| Sequence | PBM E-score |
| --- | --- |
| GGCAGTCA | 0.0564 |
| AACGTACA | -0.122 |
| GGTAACTA | 0.0937 |
| CGGCCGGC | 0.371 |
| CCTAAAAG | -0.347 |
| CAGGAAAG | -0.278 |
| GCGGCTCC | 0.111 |
| AGCACCCG | 0.196 |
| CCGTGGCA | 0.249 |
| CGCTTAGC | 0.0147 |
| ACGAATAT | 0.0203 |
| GACAGCGA | -0.188 |
| GGATCACC | 0.0544 |
| CTTAATTC | -0.044 |
| GGTTATTA | 0.0103 |
| ATCACCCA | -0.0491 |
| GTACGACA | -0.147 |
| GGAATCCC | 0.308 |
| ACCTATTG | -0.217 |
| CAACGTGC | -0.0526 |
| ATATAGCG | 0.00013 |
| CTCCGTCC | 0.247 |
| AGCACCAT | -0.224 |
| AGCTCTAT | -0.16 |
| AGGTAAAC | 0.0171 |

| Sequence | PBM E-score |
| --- | --- |
| CGTGCAAG | 0.0356 |
| CATATCCG | 0.301 |
| GAATCCAC | -0.111 |
| ATGACCAC | -0.0139 |
| GATTCAAC | 0.187 |
| GTGCGGAA | 0.366 |
| GGACCATA | 0.0499 |
| AATTCCGC | 0.397 |
| AAAAGCAT | -0.142 |
| ACGCATTC | 0.0991 |
| CACAGATA | -0.265 |
| AGGGACAC | 0.0216 |
| GGGGCTTA | -0.159 |
| CAGTCTGC | -0.173 |
| AAACACCG | 0.103 |
| ACGATAGC | -0.0446 |
| AGCGACGC | -0.0316 |
| ACTTTAGA | -0.0766 |
| ACTTCACG | -0.11 |
| CTTTAGTC | -0.276 |
| ATGCCGCG | 0.346 |
| GAGGTAGA | 0.082 |
| CGAATGCC | 0.112 |
| CCTCATCG | 0.0337 |
| ACTACTGG | -0.208 |

| Sequence | PBM E-score |
| --- | --- |
| ATCGAGGG | 0.0924 |
| CTGTCAGC | -0.0336 |
| CGCAACCC | 0.145 |
| CTAGACTA | -0.12 |
| GCCAGTAC | -0.0709 |
| CTAGGGGC | -0.0925 |
| CTTAAACA | -0.0118 |
| GACTGGAC | -0.158 |
| CGTTTAGC | -0.00911 |
| AAATTGAG | -0.11 |
| ATTAGCGG | 0.14 |
| CATAAACA | -0.0619 |
| ACAGGTCT | -0.135 |
| GTGGAAAC | 0.0684 |
| GAGTACAC | -0.115 |
| CTAGGTTA | 0.0843 |
| AATGCACA | 0.0104 |
| AGCTAATA | -0.069 |
| CATCGGAA | 0.422 |
| AACCCTTG | -0.139 |
| ATCAGGCG | -0.0646 |
| ATAACCGC | 0.131 |
| TAACGGCA | 0.0384 |
| AACCTGCG | 0.186 |
| ACTCTTAA | -0.273 |

| Sequence | PBM E-score |
| --- | --- |
| ACTCATGC | -0.166 |
| ACACTCAC | 0.0722 |
| CCGAGTCG | 0.134 |
| AAGTGGTG | 0.0797 |
| CAGCCAAA | 0.00884 |
| CGCTTTCC | 0.218 |
| AGACGCAC | -0.0855 |
| CCTCGCCA | -0.179 |
| GGCGGCTA | 0.0717 |
| AGATCCTA | -0.277 |
| ACCCACGC | -0.0677 |
| CACCTTGA | -0.106 |
| TTCGAGAA | -0.192 |
| CCACGTGG | -0.375 |
| AACACGGG | 0.116 |
| GGGTCATA | -0.0563 |
| ACAAATCC | 0.0765 |
| CCGTAAGC | -0.0323 |
| GTGGTCGA | -0.172 |
| ATAGACTA | -0.333 |
| CCCACTAC | -0.0207 |
| CATCTACA | -0.125 |
| AAGCAAGT | -0.159 |
| ATCCAAGC | -0.212 |
| GACTGGCC | 0.0864 |

| Sequence | PBM E-score |
| --- | --- |
| CCACGTGC | -0.171 |
| GCATCAAA | 0.0575 |
| AAGACTAC | -0.188 |
| AACCAACT | 0.00667 |
| GTAGAGAC | -0.309 |
| CACTACCA | 0.0149 |
| AAGTGTGC | 0.1 |
| GCTGTTAC | -0.11 |
| ACGCATCC | 0.00027 |
| CCTTTTGA | -0.184 |
| CAGCGTGG | -0.263 |
| ATTTGGTC | 0.203 |
| ACATAACC | 0.0878 |
| TCGATTAA | 0.137 |
| AGTGCGCC | 0.0425 |
| CGGCTATA | 0.179 |
| AACCCCTT | -0.0379 |
| CTCCAAAA | -0.184 |
| CAAGCACC | -0.252 |
| CTTACCTA | -0.0586 |
| GACTCGAC | -0.0844 |
| GCCGAGAA | 0.226 |
